The source of these data is a collection of fitness landscapes (doi:10.1016/j.celrep.2020.107928).

Sequences and labels used below:
B1: Caulobacter ParB omega fusion; a variant is named by its letters at X, in order, B8GW30 (parent)
chain: MESVVVGEPGMSEGRRGLGRGLSALLGEVDAAPAQAPGEQLGGSREAPIEILQRNPDQPRRTFREEDLEDLSNSIREKGVLQPILVRPSPDTAGEYQIVAGERAWRAAQRAGLKTVPIMVRELDDLAVLEIGIIENVQRADLNVLEEALSYKVLMEKFERTQENIAQTIGKSXSHVANXMRLLXLPDEVQSYLVSGELTAXHARAIAAAADPVALAKQIIEGGLSVRETEALARKAPNLSAGKSKGGRPPRVKDTDTQALESDLSSVLGLDVSIDHRGSTGTLTITYATLEQLDDLCNRLTRGI

In all, about 81,000 sequences were measured (“one-hybrid fitness for binding parS DNA”: median about -0.17, highest 2% from about 0.51 on). The list shows a part of the results.

Variants of B1 are the subject of the experiment. Nature of the experiment: one-hybrid fitness for binding parS DNA (scaled: cognate 1, non-cognate 0); higher = stronger binding. To be noted: with parS DNA site. In short, it runs like this: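 Bacterial one-hybrid selection in E. coli USO rpoZ- hisB- pyrF- with a HIS3 reporter carrying the site 19 bp from the promoter, screening Caulobacter ParB libraries with four specificity codons randomised (NNS). Cells grew 48 hours at 37°C on M9-minus-histidine plus 0.1 mM IPTG and 5 mM 3-AT. Plasmids before and after selection were Illumina-sequenced, three replicate libraries pooled, and variants under 10 reads dropped. Fitness is the log change in variant-to-wild-type read ratio, rescaled to cognate 1, non-cognate 0.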
Consider RVVL, for which the “one-hybrid fitness for binding parS DNA” value is no more than 0.2. Regarding CCAS, the “one-hybrid fitness for binding parS DNA” value was no more than 0.2. In the case of MRDY, the “one-hybrid fitness for binding parS DNA” value was no more than 0.2.

For ISCR, the “one-hybrid fitness for binding parS DNA” value was no more than 0.2. Turning to KVIR, the “one-hybrid fitness for binding parS DNA” value was no more than 0.2.

Take YLRG: the “one-hybrid fitness for binding parS DNA” value was no more than 0.2. With DPNS, the “one-hybrid fitness for binding parS DNA” value was no more than 0.2. As for RFES, the “one-hybrid fitness for binding parS DNA” value turned out to be 0.881.

In the case of TVHS, the “one-hybrid fitness for binding parS DNA” value is no more than 0.2. For the variant TYYV, the “one-hybrid fitness for binding parS DNA” value was no more than 0.2.

Turning to EGMS, the “one-hybrid fitness for binding parS DNA” value was no more than 0.2. Take NNND: the “one-hybrid fitness for binding parS DNA” value was no more than 0.2. Take FNQD: the “one-hybrid fitness for binding parS DNA” value is no more than 0.2. On to YEWR, for which the “one-hybrid fitness for binding parS DNA” value was no more than 0.2.

As for RSDF, the “one-hybrid fitness for binding parS DNA” value is no more than 0.2. For the variant MQTM, the “one-hybrid fitness for binding parS DNA” value was no more than 0.2. For the variant WRGI, the “one-hybrid fitness for binding parS DNA” value was no more than 0.2. In the case of QPSN it was no more than 0.2. ESSL: the “one-hybrid fitness for binding parS DNA” value was no more than 0.2. As to LERT, the “one-hybrid fitness for binding parS DNA” value was no more than 0.2. Consider QLGR, for which the “one-hybrid fitness for binding parS DNA” value is no more than 0.2. In the case of FSIS it was no more than 0.2; in that of WAME, 0.301.

For HHLR, the “one-hybrid fitness for binding parS DNA” value is no more than 0.2. SSHS: the “one-hybrid fitness for binding parS DNA” value was no more than 0.2. Under SHSE stands no more than 0.2; under HKGG, no more than 0.2.

Take PAPD: the “one-hybrid fitness for binding parS DNA” value is no more than 0.2. For the variant RKNF, the “one-hybrid fitness for binding parS DNA” value is no more than 0.2. Consider HPPK, for which the “one-hybrid fitness for binding parS DNA” value was no more than 0.2. As to NNTC, the “one-hybrid fitness for binding parS DNA” value is no more than 0.2. Turning to PPNS, the “one-hybrid fitness for binding parS DNA” value is no more than 0.2. Regarding RIFI, the “one-hybrid fitness for binding parS DNA” value is no more than 0.2. In the case of ETSE it was no more than 0.2; in that of ERTN, no more than 0.2. In the case of HLAR it was no more than 0.2; in that of PFGK, no more than 0.2. In the case of PLAD, the “one-hybrid fitness for binding parS DNA” value was no more than 0.2. Turning to SPTF, the “one-hybrid fitness for binding parS DNA” value was no more than 0.2. With DDVV, the “one-hybrid fitness for binding parS DNA” value is no more than 0.2. Under FAHM stands no more than 0.2.

Regarding WDMR, the “one-hybrid fitness for binding parS DNA” value is no more than 0.2. Consider DHYT, for which the “one-hybrid fitness for binding parS DNA” value is no more than 0.2. In the case of QYPW, the “one-hybrid fitness for binding parS DNA” value is no more than 0.2. For MMAG, the “one-hybrid fitness for binding parS DNA” value is no more than 0.2. Regarding FLFY, the “one-hybrid fitness for binding parS DNA” value was no more than 0.2. With VAKD, the “one-hybrid fitness for binding parS DNA” value is no more than 0.2. Under KHMT stands no more than 0.2. Take LPRK: the “one-hybrid fitness for binding parS DNA” value was no more than 0.2.

Turning to RRSS, the “one-hybrid fitness for binding parS DNA” value was 0.653. Turning to QCFG, the “one-hybrid fitness for binding parS DNA” value is no more than 0.2.

Turning to RPWE, the “one-hybrid fitness for binding parS DNA” value was no more than 0.2. Turning to YVNA, the “one-hybrid fitness for binding parS DNA” value was no more than 0.2. In the case of SGLR it was no more than 0.2; in that of EMHG, no more than 0.2.

SMQT: the “one-hybrid fitness for binding parS DNA” value is no more than 0.2. Consider WPKR, for which the “one-hybrid fitness for binding parS DNA” value is no more than 0.2. As to CLAL, the “one-hybrid fitness for binding parS DNA” value was no more than 0.2.

As for VTLK, the “one-hybrid fitness for binding parS DNA” value is no more than 0.2. For QYEI, the “one-hybrid fitness for binding parS DNA” value is no more than 0.2. As for STSS, the “one-hybrid fitness for binding parS DNA” value was no more than 0.2.

VHWG: the “one-hybrid fitness for binding parS DNA” value was no more than 0.2. In the case of SRSR, the “one-hybrid fitness for binding parS DNA” value is no more than 0.2. FELF: the “one-hybrid fitness for binding parS DNA” value was no more than 0.2. On to PPSP, for which the “one-hybrid fitness for binding parS DNA” value was no more than 0.2. On to GDRE, for which the “one-hybrid fitness for binding parS DNA” value was no more than 0.2. For QQHF, the “one-hybrid fitness for binding parS DNA” value is no more than 0.2. In the case of RETT, the “one-hybrid fitness for binding parS DNA” value is no more than 0.2.

Regarding STRE, the “one-hybrid fitness for binding parS DNA” value was no more than 0.2. For the variant RQSP, the “one-hybrid fitness for binding parS DNA” value was no more than 0.2. Consider GSDR, for which the “one-hybrid fitness for binding parS DNA” value was no more than 0.2. Take HEGQ: the “one-hybrid fitness for binding parS DNA” value is no more than 0.2. Under DSEG stands no more than 0.2; under TDPL, no more than 0.2; under CRQN, no more than 0.2. On to LCKF, for which the “one-hybrid fitness for binding parS DNA” value was no more than 0.2. Under RYYY stands 0.462.
